Among all 50,000 compounds or so, about 800 (1.6%) showed an effect of 50% or more. This is one part of the list.
Molecular target: Bcl-2-like protein 10 (Homo sapiens) (UniProt Q9HD36)
Experiment: TR3 peptide-Bcl-B binding displacers, biochemical primary FP assay, phenotype converters (AID 1240);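 further: 0% = Bcl-B with tracer peptide and DMSO and 100% = tracer peptide lacking Bcl-B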
Details: GST-Bcl-B / FITC-TR3 peptide fluorescence polarization; stronger effect = higher value; compound at 3.75 mg/L

Sequence of UniProt Q9HD36 (Q9HD36 whole entry, looked up): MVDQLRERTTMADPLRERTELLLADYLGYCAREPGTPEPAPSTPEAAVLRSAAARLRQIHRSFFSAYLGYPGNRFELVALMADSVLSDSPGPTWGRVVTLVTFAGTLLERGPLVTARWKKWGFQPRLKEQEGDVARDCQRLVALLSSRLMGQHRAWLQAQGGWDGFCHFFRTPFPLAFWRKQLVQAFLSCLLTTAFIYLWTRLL

SMILES	displacement
O=C1NC(=O)/C(=C\c2cc3c(cc2Br)OCO3)S1	11.9%
O=C(CN1CCOCC1)Nc1c(-c2ccccc2)c2cc(Br)ccc2[nH]c1=O	8.7%
CCCCN1C(=O)C(=O)c2cc(Br)ccc21	-7.7%
O=c1oc2cc(OCc3ccccc3F)ccc2c2ccccc12	1.2%
COc1ccc(C(=O)/C=C/Nc2ccc(NC(C)=O)cc2)cc1	10.7%
O=C(NC(NC(=S)Nc1cccc(C(=O)O)c1)C(Cl)(Cl)Cl)OCc1ccccc1 (configuration not stated)	-2%
Cc1ccc(-c2ccc(OCC(=O)Nc3ccccc3C)cc2)cc1	3.1%
Cc1ccc(C(=O)NNC(=O)c2ccc(O)cc2)cc1	-8.4%
O=C1CC(c2cccs2)CC2=C1C(c1ccsc1)Nc1ccccc1N2 (configuration not stated)	0%
O=C(COc1ccccc1Cl)NNC(=O)c1ccc(O)cc1	-9.4%
CCNC(=S)NNC(=O)c1cccc(Br)c1	-7.1%
O=C1/C(=C/c2ccc(Cl)cc2)SC(=S)N1CCc1ccccc1	9.1%
CC(C)(C)c1cc(NC(=O)c2cc(F)c(F)c(F)c2F)no1	-15.3%
C=CCSc1nnc2nc(C)cc(C)n12	1%
Cc1cccc(NC(=O)CSc2nccn2C)c1C	0%
COc1ccc(/C=C/C(=O)Nc2cc3nn(-c4ccc(C)cc4)nc3cc2C)cc1	10.7%
COC(=O)C1=C(C)N(c2cccc(OC)c2)C(=O)/C1=C\c1ccccc1F	4.7%
Cc1c(Cl)cccc1-n1ncnc1-c1ccc(Br)cc1	9.5%
NC(=O)c1c(NC(=O)CCCC(=O)O)sc2c1CCCCC2	10.4%
Cc1c(C2(c3c(C)n(C)n(-c4ccccc4)c3=O)C(=O)Nc3ccccc32)c(=O)n(-c2ccccc2)n1C	-0.2%
O=C(NCC1CCCO1)c1ccccc1Cl (configuration not stated)	-6.7%
O=C(CSc1cc(Cl)ccc1Cl)Nc1cccc([N+](=O)[O-])c1	11.6%
O=C1CCC(c2ccccc2)N1C(=O)c1cccnc1 (configuration not stated)	-8%
O=C1C=C(C(F)(F)C(F)(F)F)Nc2ccccc2N1	-1.6%

SMILES	displacement
O=C(CN(c1ccc(F)cc1)S(=O)(=O)c1ccccc1)Nc1cc(Cl)cc(Cl)c1	2.9%
O=C(COc1ccccc1Cl)NNC(=O)c1cc2ccccc2cc1O	-29.5%
N#C/C(=C/c1ccccc1[N+](=O)[O-])C(=O)Nc1ccc(Cl)cc1	-3.7%
CCOC(=O)c1ccc(Nc2nnc(-c3ccccc3)c3ccccc23)cc1	-6.6%
Cc1ccc2cc(NC(=O)c3cccc(F)c3)ccc2n1	5.2%
O=C(CNc1n[nH]c(=O)[nH]c1=O)N/N=C/c1c(Cl)cccc1Cl	-10.1%
Cc1ccc(C(=O)NC=C(C#N)C#N)cc1	5.5%
N/C(=N\OC(=O)c1ccc(Cl)cc1)c1ccc(Br)cc1	15.5%
O=C(NC(NC(=S)Nc1c(Cl)cccc1Cl)C(Cl)(Cl)Cl)c1ccccc1 (configuration not stated)	-4.5%
CCOC(=O)C1=C(C)N=c2s/c(=C\c3ccc(N(C)C)o3)c(=O)n2C1c1ccc(F)cc1 (configuration not stated)	-22.6%
COc1cc(NC(=O)COc2ccccc2C)cc(OC)c1	4.1%
Cc1ccccc1N1C(=O)c2cccc3c(C(=O)O)ccc(c23)C1=O	-0.9%
Cn1cc(N)c(C(=O)Nc2ccc3c(c2)C(=O)NC3=O)n1	5.6%
O=C(Nc1ccc(O)cc1C(=O)O)c1ccccc1Br	11.4%
CCc1c(C)sc(NC(=O)C(C)Oc2cccc(Cl)c2)c1C#N (configuration not stated)	-27.5%
C=CCN1C(=O)/C(=C\c2ccc(-c3ccc([N+](=O)[O-])cc3Cl)o2)C(=O)NC1=S	21%
O=C(Nc1cccc(F)c1)c1cc(S(=O)(=O)N2CCCCC2)ccc1Cl	-0.1%
CCCCOc1ccc(NC(=O)CSc2nnc(N)s2)cc1	-16.9%
NS(=O)(=O)c1cccc(NC(=O)c2cccc3c(Br)cccc23)c1	-11.9%
Cc1cccc(NC(=O)c2cc3c(ccc4ccccc43)oc2=O)n1	-7%
CSc1ccccc1NC(=O)CC1Nc2ccccc2NC1=O (configuration not stated)	-0.2%
O=C(O)CCCCCN1C(=O)C(=O)/C(=C(/O)c2ccccc2)C1c1ccc(Cl)cc1 (configuration not stated)	3%
Cc1ccccc1C(=O)N/N=C/c1ccc(Sc2nnnn2-c2ccccc2)o1	-23.6%
O=C(Nc1ccccn1)C(=O)NC1CCCCC1	9.2%

SMILES	displacement
Cc1c(Cl)ccc2c(N=Nc3ccccn3)c(O)[nH]c12	9.3%
COCCCNC(=O)COc1cccc(C)c1	13%
Cc1cc([N+](=O)[O-])ccc1N=Cc1ccc(O)cc1O	-27.9%
COc1ccc2[nH]c(C)c(CCC(C)=O)c(=S)c2c1	13.6%
c1ccc(-c2cc(-c3nc4ccccc4[nH]3)c3ccccc3n2)cc1	11.8%
COCCN1C(=O)/C(=C\c2ccc(N(C)C)cc2)C(C(=O)OC)=C1C	11.7%
CCCOc1ccc(C(=O)Nc2ccccc2C(=O)O)cc1	11.6%
CCN(CC)C(=O)CN1C(=O)C(=O)c2ccccc21	3.9%
Nc1ccc(-c2nc3cc(N)ccc3s2)cc1	-4.1%
COC(=O)c1cn(C(=O)c2ccc(C)c([N+](=O)[O-])c2)c2ccccc12	-2.1%
O=C(c1ccccc1)N1CCN(C(=O)c2nn3c(C(F)(F)F)cc(-c4cccs4)nc3c2Br)CC1	11.9%
COc1ccccc1OCCOc1ccc(/C=C2/C(=O)NC(=O)N(c3ccccc3C)C2=O)cc1OC	76.2%
N#CC(C#N)=Cc1ccc(-c2ccc(Cl)c(C(=O)O)c2)o1	0.6%
CN(C)CCN(Cc1ccccc1)c1ccnc(N(C)C)c1C#N	6.2%
CCOC(=O)CCCSc1nc2sc(C)c(C)c2c(=O)n1-c1ccccc1	-8%
CCCN1C(=O)c2ccccc2NC1c1ccc(OC)c(COc2ccc([N+](=O)[O-])cc2)c1 (configuration not stated)	14.7%
c1ccc(OCCCCN2CCCC2)cc1	-5.9%
COc1ccc(CCNC(=O)C2CC2)cc1OC	0.7%
Fc1ccc(Br)cc1C1Nc2cccc3cccc(c23)N1	13.8%
Cc1ccc(CC(C)CC(=O)NCCc2ccc3c(c2)OCO3)cc1 (configuration not stated)	12.2%
O=C(N/N=C\c1ccc(OC(=O)c2cccc3ccccc23)cc1)c1ccc(Br)cc1	7.8%
CCCC(=O)N1CCN(c2ccc(C(C)=O)cc2F)CC1	-7.8%
Cc1ccc(C(=O)Nc2cccc(C(=O)O)c2)cc1S(=O)(=O)NCc1ccccc1	-5.9%
COc1cc(C(=O)NCCOc2cc(C)ccc2C(C)C)cc(OC)c1OC	-14.3%
